# Laboratory results as given in article PMC12948427 (The Journal of Clinical Investigation, 2025).
# Results are given in words; binding and its absence hold for the method and conditions named. For some assays here: Binding seen in cells or lysates may run through a third protein. Some binding calls cover weakened binding; strength is not graded here.
# Legend:
# [1] = biological target: purified FLAG-M protein (SARS-CoV-2 M) (SARS-CoV-2) (UniProt P0DTC5); assay: pull-down; both purified
# [2] = biological target: SARS-CoV-2 membrane (M) protein, transiently expressed (SARS-CoV-2) (UniProt P0DTC5); assay: co-IP; HGS truncations immunoprecipitated by M protein (Supplemental Figure 6C); cells and tags not shown
# [3] = biological target: hepatocyte growth factor-regulated tyrosine kinase substrate (HGS) (UniProt O14964); assay: co-IP
# [4] = biological target: SARS-CoV-2 envelope small membrane (E) protein, transiently expressed (SARS-CoV-2) (UniProt P0DTC4); assay: co-IP
# [5] = biological target: SARS-CoV-2 membrane (M) protein, transiently expressed (SARS-CoV-2) (UniProt P0DTC5); assay: co-IP
substance,measurement,setting,value
purified HIS-HGS protein (from UniProt O14964 1-777),binding,[1],binds
HGS 1-509 (from UniProt O14964 1-509) (domain or fragment),binding,[2],binds
"SARS-CoV-2 envelope small membrane (E) protein, transiently expressed (from UniProt P0DTC4 1-75)",binding,[3],no binding
"SARS-CoV-2 membrane (M) protein, transiently expressed (from UniProt P0DTC5 1-222)",binding,[3],binds
hepatocyte growth factor-regulated tyrosine kinase substrate (HGS) (from UniProt O14964 1-777),binding,[4],no binding
same,binding,[5],binds
HGS 1-290 (from UniProt O14964 1-290) (domain or fragment),binding,[2],binds
HGS 1-390 (co-IP construct) (from UniProt O14964 1-390) (domain or fragment),binding,[2],binds
